Experiment [1] concerns the target T1, human TSG101 UEV domain (UEV-WT) (Homo sapiens, UniProt Q99816). The experiment in a line: biochemical.
Experiment [2] concerns the target T1, human TSG101 UEV domain (UEV-WT). Particulars: ITC200, 28°C, 20mM sodium phosphate pH 7.20, 150mM NaCl, 5% glycerol, cell 300-600 μM UEV, peptide 4 mM or 6.5 mM, 18 injections of 2.1 μl, one-site model, SD of three measurements, N.B. = no binding.

T1 sequence (Q99816 2-145): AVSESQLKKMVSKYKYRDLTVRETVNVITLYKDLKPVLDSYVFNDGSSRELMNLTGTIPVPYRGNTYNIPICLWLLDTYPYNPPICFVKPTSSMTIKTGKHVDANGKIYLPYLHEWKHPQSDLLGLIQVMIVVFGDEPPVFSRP

Ac-PEPTAPAEE-NH2 [P11A] registered an equilibrium dissociation constant (Kd) in experiment [1] of 170 ± 15 µM.
Ac-PESTAPPEE-NH2 [P7S]: in experiment [2], the “Kd (equilibrium dissociation constant, ITC)” value is listed as “measurable binding”. This substance registered a dissociation constant Kd in experiment [1] of 1600 ± 14 µM.

For orientation: Kd means a measure of binding affinity in units of concentration.

Source of the values: article PMC3124085 (Structure (London, England : 1993), 2010).
